Source: a collection of fitness landscapes (doi:10.1016/j.celrep.2020.107928)
Whole data set: some 81,000 sequences, median “one-hybrid fitness for binding NBS DNA” near -0.1, cut for the highest 2% near 0.36. Some of the results follow.

B1: Caulobacter ParB omega fusion; a variant is named by its letters at X, in order, B8GW30 (parent)
chain: MESVVVGEPGMSEGRRGLGRGLSALLGEVDAAPAQAPGEQLGGSREAPIEILQRNPDQPRRTFREEDLEDLSNSIREKGVLQPILVRPSPDTAGEYQIVAGERAWRAAQRAGLKTVPIMVRELDDLAVLEIGIIENVQRADLNVLEEALSYKVLMEKFERTQENIAQTIGKSXSHVANXMRLLXLPDEVQSYLVSGELTAXHARAIAAAADPVALAKQIIEGGLSVRETEALARKAPNLSAGKSKGGRPPRVKDTDTQALESDLSSVLGLDVSIDHRGSTGTLTITYATLEQLDDLCNRLTRGI

Variants of: B1
Assay: one-hybrid fitness for binding NBS DNA (the Noc-binding site; scaled: cognate 1, non-cognate 0); higher = stronger binding
Conditions: with NBS DNA site
Procedure, shortened: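 The reporter was HIS3, with the binding site 19 bp from the promoter, in E. coli USO used for bacterial one-hybrid selection of Caulobacter ParB libraries with four specificity codons randomised. Growth was on M9 lacking histidine, with 0.1 mM IPTG and 5 mM 3-AT, for 48 hours at 37°C. Illumina sequencing covered plasmids before and after selection; three replicate libraries were pooled and variants with under 10 reads dropped. A fitness score is the log change in variant-to-wild-type read ratio, rescaled to the cognate and non-cognate references.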

Variant | one-hybrid fitness for binding NBS DNA
LRMH | ≤ 0.2
GCLS | ≤ 0.2
AHKG | ≤ 0.2
GLNA | ≤ 0.2
TNLK | ≤ 0.2
KITT | ≤ 0.2
QSWR | 0.365
QRRV | 0.574
GQKS | ≤ 0.2
KQRY | ≤ 0.2
VQTN | ≤ 0.2
WIYT | ≤ 0.2
FFRM | ≤ 0.2
LPCT | ≤ 0.2
ITSG | ≤ 0.2
WVYS | ≤ 0.2
WLLV | ≤ 0.2
TAKH | ≤ 0.2
TTTR | ≤ 0.2
YVNR | ≤ 0.2
CRFK | ≤ 0.2
VMHR | ≤ 0.2
DYQV | ≤ 0.2
HKHS | ≤ 0.2
MNGC | ≤ 0.2
AKSE | ≤ 0.2

Variant | one-hybrid fitness for binding NBS DNA
SLKY | ≤ 0.2
YLHC | ≤ 0.2
LHGR | ≤ 0.2
ACYS | ≤ 0.2
RAFV | ≤ 0.2
PTDR | ≤ 0.2
SFKS | ≤ 0.2
QIDW | ≤ 0.2
CCDG | ≤ 0.2
HLSS | ≤ 0.2
VVEW | ≤ 0.2
SATW | ≤ 0.2
SLVT | ≤ 0.2
PFQC | ≤ 0.2
VLWC | ≤ 0.2
AGDT | ≤ 0.2
SSGE | ≤ 0.2
LMEK | ≤ 0.2
KRNV | ≤ 0.2
WCRG | ≤ 0.2
QSCI | ≤ 0.2
ANRC | ≤ 0.2
RLPL | ≤ 0.2
RFQA | ≤ 0.2
LDTR | ≤ 0.2
TMSA | ≤ 0.2

Variant | one-hybrid fitness for binding NBS DNA
RKLE | ≤ 0.2
HQSH | ≤ 0.2
AWCR | ≤ 0.2
DNTH | ≤ 0.2
EVAA | ≤ 0.2
LKAL | ≤ 0.2
PPMR | ≤ 0.2
HQSV | ≤ 0.2
VLDG | ≤ 0.2
EWNT | ≤ 0.2
GRIA | ≤ 0.2
PNSY | ≤ 0.2
PPAY | ≤ 0.2
SHFW | ≤ 0.2
VRNH | ≤ 0.2
LFHL | ≤ 0.2
GHYS | ≤ 0.2
SVPK | ≤ 0.2
QHFT | 0.312
LWNC | ≤ 0.2
QFNA | ≤ 0.2
YEDG | ≤ 0.2
YTIY | ≤ 0.2
PWGA | ≤ 0.2
PAGH | ≤ 0.2
HNQR | ≤ 0.2

Variant | one-hybrid fitness for binding NBS DNA
PVVL | ≤ 0.2
TQSV | ≤ 0.2
TSHW | ≤ 0.2
TSVC | ≤ 0.2
CRGD | ≤ 0.2
NWIC | ≤ 0.2
LCPA | ≤ 0.2
VAPQ | ≤ 0.2
SSGS | ≤ 0.2
RWTH | ≤ 0.2
SDAC | ≤ 0.2
YQWG | ≤ 0.2
WGLC | ≤ 0.2
NLGM | ≤ 0.2
YTWF | ≤ 0.2
RYAD | ≤ 0.2
MGGQ | ≤ 0.2
IRKH | 0.257
KSWV | ≤ 0.2
QAYR | 0.464
HLVA | ≤ 0.2
HGKV | ≤ 0.2
LCKK | ≤ 0.2
ACYG | ≤ 0.2
KWTI | ≤ 0.2
CFDS | ≤ 0.2

Variant | one-hybrid fitness for binding NBS DNA
CICR | ≤ 0.2
AKRA | ≤ 0.2
PLSP | ≤ 0.2
TNWG | ≤ 0.2
PLAW | ≤ 0.2
PLDW | ≤ 0.2
ELCC | ≤ 0.2
RRLE | ≤ 0.2
TAAF | ≤ 0.2
THLG | ≤ 0.2
PGSV | ≤ 0.2
WRST | ≤ 0.2
HRGF | ≤ 0.2
YYLG | ≤ 0.2
KENR | ≤ 0.2
REGT | ≤ 0.2
RRNW | ≤ 0.2
LTGY | ≤ 0.2
SQTF | ≤ 0.2
SNCT | ≤ 0.2
LQNG | ≤ 0.2
LVDR | ≤ 0.2
HPHM | ≤ 0.2
LIGT | ≤ 0.2
QWIA | ≤ 0.2
REPP | ≤ 0.2

Variant | one-hybrid fitness for binding NBS DNA
VQTC | ≤ 0.2
GDVC | ≤ 0.2
FNLR | ≤ 0.2
VLVV | ≤ 0.2
TFIW | ≤ 0.2
MHTH | ≤ 0.2
TTRD | ≤ 0.2
RHRA | 0.325
RFVD | ≤ 0.2
EVPT | ≤ 0.2
QCQF | ≤ 0.2
LHYT | ≤ 0.2
GQTK | ≤ 0.2
SPSC | ≤ 0.2
RHWC | ≤ 0.2
SLQC | ≤ 0.2
NWGC | ≤ 0.2
RKNP | ≤ 0.2
KPCG | ≤ 0.2
ENFG | ≤ 0.2
IHMG | ≤ 0.2
WVVR | ≤ 0.2
FAKY | ≤ 0.2
